# Measurements published in paper PMC4336329 (PLoS ONE, 2015).
# About 14,000 (4.5%) of roughly 310,000 compounds showed an effect of 50% or more. Effects have a minus sign here. The list shows a part of the results.
# Target: human ether-à-go-go-related gene (hERG) potassium channel (human, UniProt Q12809)
# Assay: primary screen, population patch clamp on CHO cells stably expressing hERG
# 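Further: peak tail current of the secondary pulse compared with the same well before compound.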
# Chain of human ether-à-go-go-related gene (hERG) potassium channel (Q12809 whole entry, looked up): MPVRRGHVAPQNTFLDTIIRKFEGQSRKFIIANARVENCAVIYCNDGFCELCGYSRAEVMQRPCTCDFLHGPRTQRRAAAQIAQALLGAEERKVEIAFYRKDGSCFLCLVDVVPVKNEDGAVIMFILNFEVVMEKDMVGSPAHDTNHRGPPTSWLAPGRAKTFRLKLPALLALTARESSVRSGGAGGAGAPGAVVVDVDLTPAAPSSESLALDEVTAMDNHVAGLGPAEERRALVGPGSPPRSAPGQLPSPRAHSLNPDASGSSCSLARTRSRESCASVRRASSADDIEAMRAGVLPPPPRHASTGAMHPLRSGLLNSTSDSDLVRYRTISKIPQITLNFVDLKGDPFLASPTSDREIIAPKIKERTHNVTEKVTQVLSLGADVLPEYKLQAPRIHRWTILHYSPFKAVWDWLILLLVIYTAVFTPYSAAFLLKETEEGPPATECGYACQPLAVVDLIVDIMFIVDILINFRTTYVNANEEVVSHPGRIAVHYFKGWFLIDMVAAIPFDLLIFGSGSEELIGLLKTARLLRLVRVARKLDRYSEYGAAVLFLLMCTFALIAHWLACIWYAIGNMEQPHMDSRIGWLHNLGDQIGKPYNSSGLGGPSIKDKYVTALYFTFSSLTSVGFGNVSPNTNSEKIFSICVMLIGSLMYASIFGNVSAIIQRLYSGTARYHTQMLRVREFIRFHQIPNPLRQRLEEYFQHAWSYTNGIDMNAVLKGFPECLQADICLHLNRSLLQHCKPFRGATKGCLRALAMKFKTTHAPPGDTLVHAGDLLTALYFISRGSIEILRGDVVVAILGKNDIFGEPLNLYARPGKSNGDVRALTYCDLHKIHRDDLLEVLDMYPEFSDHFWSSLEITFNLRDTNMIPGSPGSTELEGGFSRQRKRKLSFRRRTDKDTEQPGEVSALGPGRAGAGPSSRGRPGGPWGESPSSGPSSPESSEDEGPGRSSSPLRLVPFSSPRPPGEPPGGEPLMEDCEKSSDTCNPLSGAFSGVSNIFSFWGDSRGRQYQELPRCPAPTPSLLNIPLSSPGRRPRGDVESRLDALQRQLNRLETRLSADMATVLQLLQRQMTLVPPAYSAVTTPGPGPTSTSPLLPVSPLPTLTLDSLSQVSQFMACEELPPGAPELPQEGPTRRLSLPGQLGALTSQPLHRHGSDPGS
row,Compound,"hERG current change (%, negative = inhibition) at 10uM"
1,COCCCn1c(=O)c2sccc2n2c(CCCC(=O)N3CCN(c4ccccn4)CC3)nnc12,-2.18%
2,COc1cc(NS(=O)(=O)N2CCCC2)cc(OC)c1OC,4.77%
3,O=C(NCc1ccccc1)C1(C(F)(F)F)C/C(=C/CCO)CCCO1 (stereo not shown),5.71%
4,CS(=O)(=O)N(CC(=O)Nc1ccccc1C(=O)N1CCCC1)c1cccc([N+](=O)[O-])c1,-13.2%
5,COc1ccc2c(c1)C(NS(=O)(=O)OCC(Cl)(Cl)Cl)CCC2 (stereo not shown),-0.647%
6,CCOc1ccc(NCCC#N)cc1,-7.61%
7,O=c1[nH]c(NCc2ccccc2)nc2c1CCC2,12.2%
8,COc1ccc(C(=O)C2CCCN(C3CSCCSC3)C2)cc1OC (stereo not shown),-21.8%
9,COc1ccc(/C=C2\CCn3c2nc2cc(C(=O)O)ccc2c3=O)cc1O,2.38%
10,NC(=O)C1CC(=O)N(c2ccc(OCC(=O)Nc3ccccc3F)cc2)C1 (stereo not shown),12.2%
11,Cc1cccc(N(CC(=O)NC2CCCC2)C(=O)CCCC(=O)Nc2ccccn2)c1,-2.02%
12,CCC1CCCCN1C(=O)CSc1nc2c([nH]c3ccccc32)c(=O)n1C (stereo not shown),9.72%
13,Cc1ccc(CNC(=O)C2CCCN(S(=O)(=O)N3CCC(C)CC3)C2)cc1 (stereo not shown),9.17%
14,NC(=O)c1cc([N+](=O)[O-])ccc1N1CCN(Cc2ccccc2)CC1,-41.8%
15,CCn1c(CNC(=O)c2ccc(Cl)cc2)nnc1SCC(=O)N1CCOCC1,-1.05%
16,CC(=O)Nc1ccc(S(=O)(=O)N2CCC(C(=O)Nc3nccs3)CC2)cc1,12.7%
17,CC(=O)N(c1ccc(C)cc1)C1C=CS(=O)(=O)C1 (stereo not shown),7.3%
18,CCc1ccc(/C=N/NC(=O)Cc2ccc(OC)c(OC)c2)s1,3.47%
19,c1ccc2c(c1)COC(CN1CCCCC1)OC2,0.482%
20,CC(C)Cn1c(N)c(C(=O)COC(=O)c2cc(C(F)(F)F)nc3ccccc23)c(=O)n(C)c1=O,0.872%
21,O=C(COc1ccc(F)cc1Cl)NC1CCCCCC1,-5.81%
22,COc1ccc(-n2ncc3c2CC(C)(C)CC3NC(=O)c2c(C)cc(=O)oc2C)cc1 (stereo not shown),-51.1%

row,Compound,"hERG current change (%, negative = inhibition) at 10uM"
1,N#Cc1ccc(C(=O)OCC(=O)Nc2ccc(S(N)(=O)=O)cc2)cc1,-0.961%
2,COc1cccc(C(Nc2ccccn2)c2oc(CO)cc(=O)c2O)c1 (stereo not shown),9.73%
3,CCC(=O)Nc1ccc(C(=O)n2ccc(C)n2)cc1,13.1%
4,O=C1CC(Cc2ccc(Cl)cc2)C(=O)N1c1cc(Cl)ccn1 (stereo not shown),-36%
5,COC(=O)N/N=C1\CCCc2ccccc21,10.7%
6,O=C(COc1coc(CN2CCN(c3ccc(F)cc3)CC2)cc1=O)NC1CCCC1,-53.1%
7,O=C(Nc1cccc(S(=O)(=O)N2CCCCC2)c1)c1ccc2c(c1)OCO2,-8.11%
8,COc1cc(CN2CC3CC(C2)c2cccc(=O)n2C3)cc(OC)c1OC (stereo not shown),-6.41%
9,CCCCC1=CC2=CC(=O)C(C)(OC(=O)CC)C(=O)C2=CN1CCCOC(C)C (stereo not shown),-7.36%
10,CCOc1ccccc1N1CCN(C(=O)C2c3ccccc3Oc3ccccc32)CC1,-6.22%
11,CC1(C(=O)OCC(=O)Nc2cccc(S(=O)(=O)NC3=NCCCCC3)c2)CC1(Cl)Cl (stereo not shown),10.7%
12,Cc1cc(C(=O)CSc2ccc3c(c2)OCCO3)c(C)n1C1CC1,-12.4%
13,O=C(/C=C/c1ccc(Cl)cc1)Nc1ccc(N2CCOCC2)cc1,2.39%
14,CCOC(=O)c1cc2oc(C)cc2n1CC(=O)OC1CCCCC1,-5.5%
15,COc1cc(C)ccc1OCc1cc(C(=O)N2CCN(C3CCCCC3)CC2)no1,-24.4%
16,Cc1ccc(S(=O)(=O)/N=C2\C=C(Nc3cccc(C(=O)O)c3)C(=O)c3ccccc32)cc1,14.4%
17,Cc1cccc(NC(=O)c2ccc(S(=O)(=O)N3CCC(C)CC3)cc2)n1,-59.2%
18,O=C(NCc1cccc(Cl)c1)NC(=O)c1csc([N+](=O)[O-])c1,5.38%
19,Cc1cc(C)cc(NC(=O)CSc2nc3c(c(=O)n2C)SC(C)C3)c1 (stereo not shown),3.64%
20,CSc1nc(N(C)C)c2ccccc2n1,-19%
21,CCOc1ccc(C2C=C(c3ccccc3)Nc3ncnn32)cc1 (stereo not shown),-47.2%
22,CCOC(=O)/C(=N/Nc1ccc(OC)cc1)Sc1nnc(CCc2ccccc2)n1-c1ccccc1,7.41%

row,Compound,"hERG current change (%, negative = inhibition) at 10uM"
1,Cc1nc(SCC(=O)NCc2ccco2)nc(C)c1C,-6.76%
2,CC1Cc2ccccc2N1C(=O)COC(=O)CCc1nc2ccccc2c(=O)[nH]1 (stereo not shown),-24.8%
3,CCOC(=O)N1CCC(NC(=O)c2cccn3c(=O)c4cc(Br)ccc4nc23)CC1,3.69%
4,CCC(Sc1nc(C)cc(=O)[nH]1)C(=O)Nc1nc2c(s1)CCCC2 (stereo not shown),-12.4%
5,COc1ccc(CNC(=O)C2CCN(C(=O)N(C)C)CC2)c(OC)c1,-2.33%
6,Cc1nc2ccccn2c1C(=O)N=Nc1c(O)[nH]c2ccccc12,-1.89%
7,COc1ccc(CCNC(=O)CCCN2C(=O)c3ccccc3C2=O)cc1,2.74%
8,O=C(NC(=O)c1ccccc1)Nc1ccc(-c2cnco2)cc1,19.9%
9,Cn1c(C(=O)NCCC2=CCCCC2)cc2c(=O)n3ccccc3nc21,19.7%
10,CCN(CC(=O)NCc1ccc(Cl)cc1)C(=O)/C=C/c1ccco1,-11.9%
11,CCOC(=O)C1=C(C)N(c2ccccc2)C(=O)C1,7.58%
12,CCCCOc1ccc(NC(=S)Nc2cc(C)nc(SCCCC)n2)cc1,16.3%
13,O=c1c[n+]([O-])c2ccccc2n1OCc1ccccn1,18.9%
14,COc1ccc(C2=NOC(C(=O)NCc3ccccc3)C2)cc1 (stereo not shown),-1.01%
15,COc1ccc(N2CC(C(=O)Nc3ccc(S(=O)(=O)N4CCCCC4)cc3)CC2=O)cc1 (stereo not shown),18%
16,O=C(c1cccnc1)N1CCN(c2c(Cl)cccc2[N+](=O)[O-])CC1,-46%
17,CC1(c2ccccc2)NC(=O)N(CC(=O)NCCC2=CCCCC2)C1=O (stereo not shown),13.1%
18,CCn1nnnc1SCC(=O)Nc1nc2ccccc2s1,17%
19,CCCCOc1ccc(NS(=O)(=O)c2ccc(-n3cnnn3)cc2)cc1,-3.42%
20,CCc1cc(=O)oc2cc(OCC(=O)NCCCN3CCCC3=O)ccc12,9.65%
21,O=C(CCn1c(=O)c2ccccc2n(Cc2cc(=O)n3ccccc3n2)c1=O)NCc1ccco1,-4.21%
22,Cc1ccc(-c2nnc(-c3ccccc3)o2)cc1,9.14%

row,Compound,"hERG current change (%, negative = inhibition) at 10uM"
1,O=C(O)C1CCCCN1S(=O)(=O)c1cccc2nsnc12 (stereo not shown),8.43%
2,CSc1ccccc1C(=O)NCC(c1ccco1)N1CCCCC1 (stereo not shown),-15.7%
3,CN1CCC(NC(=O)c2cc(-c3cccc(Br)c3)nc3ccccc23)CC1,-69.7%
4,CCOc1ccc(CNS(=O)(=O)c2c(C(=O)N3CCCC3)c(C)n(C)c2C)cc1OC,8.09%
5,Cc1cc(Cl)ccc1NC(=O)CCC(=O)N/N=C/c1cccnc1,-0.00262%
6,CN(C)CC(C)(C)CNC(=S)Nc1ccc(S(=O)(=O)N2CCOCC2)cc1,-8.26%
7,COc1ccc(/C=C/C(=O)N2CCNC(=O)C2)c(OC)c1,27.9%
8,O=C(N(c1ccccn1)c1ccccn1)C12CC3CC(CC(C3)C1)C2,-7.28%
9,CCN1C(=O)/C(=C\N2CCN(c3cccc(Cl)c3)CC2)SC1=S,4.69%
10,COC(=O)N/N=C\c1cc2c(cc1Br)OCO2,-11.4%
11,COc1cccc(N2CCN(C(=O)CCC(=O)c3ccc(Cl)s3)CC2)c1,-34.5%
12,CC(C)c1nc(CNC(=O)C2CCC(=O)N(CCc3cccc(F)c3)C2)cs1 (stereo not shown),-4.31%
13,CCN(CC)c1ccc(NC(=O)CSc2nc3nc(C)cc(C)c3c(=O)[nH]2)cc1,-4.86%
14,CCn1nc(NS(=O)(=O)c2ccc([N+](=O)[O-])cc2)c2cc3cc(C)ccc3nc21,15.9%
15,CCOC(=O)CN1C(=O)C(=O)c2cc(C)ccc21,10.6%
16,COc1ccc(-n2c(SCC(=O)NCC3CCCO3)nc3c([nH]c4ccccc43)c2=O)cc1OC (stereo not shown),24.5%
17,N#Cc1cc(-c2ccccc2)oc1/N=C/c1ccccc1O,-1.86%
18,O=[N+]([O-])/C(C(Cl)=C(Cl)Cl)=C(/Sc1ccccc1)N1CCCCC1,4.71%
19,CC(Oc1ccccc1)C(=O)Nc1ccc(NC(=O)c2ccccc2)cc1 (stereo not shown),9.01%
20,COc1ccc(/C=C2\SC(N3CCCCC3)=NC2=O)cc1,-4.52%
21,CC(=O)c1ccc(NC(=O)C(C)Oc2ccc(N(C)S(=O)(=O)c3ccc(C)cc3)cc2)cc1 (stereo not shown),-4.31%
22,C=C(C)C1CCC(C)=C1COC(=O)Nc1ccccc1 (stereo not shown),-6.21%
